# In all, about 33,000 sequences were measured (“E-score (dimensionless, -0.5 to 0.5)”: median about -0.058, highest 2% from about 0.35 on). Some of the results follow.
# Test system: MvaT
# Test: PBM 8-mer E-score (mean of HK and ME arrays) (E-score (dimensionless, -0.5 to 0.5)); higher = stronger relative binding preference; most listed sequences are background and not binding sites
# Method in brief: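 Full-length P. aeruginosa MvaT carrying an N-terminal glutathione S-transferase tag was tested by protein binding microarray following a previously described protocol. Two universal double-stranded 60-mer arrays, ME and HK, were used, each with a constant 25-mer primer region and a variable 35-mer region covering all 8-mers. The rank-based E-score is the mean of the two arrays, parsed with a custom script. Its range runs from -0.5 to 0.5 for each 8-mer.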
row,Sequence,PBM 8-mer E-score
1,ACAAGTCA,0.0671
2,AGATGCTA,-0.0257
3,ACACGTGG,-0.0285
4,AAATGCAT,0.257
5,ATGACAGG,-0.193
6,CTGTCGGA,-0.179
7,GGCATAAC,-0.00208
8,AACATGGG,-0.0992
9,TGCAGGCA,-0.0892
10,TACAGTGA,0.0166
11,AGCAAGGC,-0.134
12,CCAATCGC,-0.18
13,ACCCTTGG,-0.266
14,TCCAGCCA,-0.254
15,ACCTGGAG,-0.224
16,TACTGCAA,0.108
17,CGCATAAC,0.0836
18,ATTACGTC,0.155
19,AACTTGCT,0.193
20,TATTCCGA,0.227
21,CACGATTC,-0.0824
22,AACAAGGC,-0.0896

row,Sequence,PBM 8-mer E-score
1,CGAAACAC,0.0148
2,GACTTCCC,-0.205
3,GCTCGACA,-0.195
4,CAGGCCTC,-0.355
5,GGACGGGA,-0.122
6,GAGTAAGA,0.0151
7,AACCACTA,-0.0695
8,GCTTAACC,-0.107
9,ACGATCGA,-0.0415
10,AGTGCAGC,-0.0911
11,ATCACGGC,-0.0541
12,GTTCCTGA,-0.0186
13,AGTGACGC,-0.109
14,AATATGAT,0.345
15,CGCTTTTA,0.062
16,CTAGAGGC,-0.228
17,GTGCCGGA,-0.131
18,CCGTCTCG,-0.252
19,ACACACCA,0.072
20,GTAGACGA,-0.0708
21,CCTACGCC,-0.303
22,AGAGCGAG,-0.174

row,Sequence,PBM 8-mer E-score
1,ATCACGCC,-0.119
2,GACCAACA,0.0491
3,ATAGAAGA,0.0897
4,ACATAGGT,-0.0135
5,GCATCATA,0.108
6,GAAAGTAC,0.0989
7,AGAGCCCC,-0.343
8,CCACATAC,0.158
9,ACACTTGA,0.0546
10,TCATAGAA,-0.00823
11,GACGATAC,-0.0716
12,AATTTAAT,0.431
13,GCGAGAGC,-0.213
14,AGACAATA,0.223
15,CATTATCA,0.169
16,ACCGCTAA,0.0156
17,AGCGAAAG,-0.0475
18,TAGTATGA,0.133
19,CGAAAGAG,-0.0656
20,GCAAATGA,0.138
21,AATTTGCT,0.174
22,CAAATGCA,0.131

row,Sequence,PBM 8-mer E-score
1,TCAGGAAA,0.0241
2,ATATTGGA,0.265
3,AAGTGATC,-0.109
4,CTCGGTCA,-0.209
5,CCGAGCCA,-0.148
6,ACCCGGGG,-0.243
7,TAGTGGGA,0.118
8,GATTACGC,0.0125
9,ATCTTGTA,0.106
10,TACGGACA,-0.00539
11,AGAATGTC,-0.167
12,GACAGTGA,-0.0698
13,TACACGCA,0.119
14,TAAGCCAA,0.0873
15,ACACAATA,0.278
16,GAAAGCGA,0.0347
17,AACTGCTA,0.00726
18,CCCAAAGA,-0.107
19,CAGGTGTC,-0.277
20,AGCCTCTG,-0.314

# Reference: the supplement of paper PMC4466236
